In the supplement of paper PMC10126150:
Values marked as one replicate rest on one cluster of the flow cell; about a third of the high ones do not repeat.

Tested on: ATP
Assay: switch fluorescence ratio, 500 uM ATP over buffer (Cy3 cluster intensity, sum of 5 cycles each) (fold (ratio)); higher = stronger signal-on switching upon ATP binding; sequences stand for … in TCGTCGGCAGCGTCAGATGTGTATAAGAGACAGTTTTTTTTTTTTTTTTTTTTTTTTT…TC
Details: aptamer strand: ATP DNA aptamer (quencher-CACCTGGGGGAGTATTGCGGAGGAAGG + anchor), 100 nM annealed; ATP concentration: 500 uM; one replicate
Method in brief: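 Between each of five buffer/ATP cycles, the flow-cell was stripped with NaOH and re-annealed. Each cycle imaged Cy3-labelled switching-strand clusters, annealed to 100 nM quencher-labelled ATP aptamer on a modified Illumina MiSeq flow-cell, first in selection buffer and then after 15 min with 500 uM ATP at 22 °C. The fluorescence ratio is summed target-cycle over summed buffer-cycle Cy3 intensity per cluster, averaged per switch-domain sequence, with clusters outside 100-1000 RFU excluded.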
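Also: ATP exposure 15 min at 22 °C before imaging.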

Sequence	switch fluorescence ratio
ACAATCTTTT	1
CCGGTGATCG	1.09
GTGAGCTCTC	1.01
GCAAAAGCG	0.992
TTCTTGCAAT	1.23
AGGGTTGATC	1.04
GTGTCCCGTC	0.999
GCGAGAGCCC	1.01
TATGTAGCGC	1.02
GGGGGTTTT	1.02
CGTCAGGAGT	0.991
AGTGGCAGGA	0.995
GCAGTAATAT	3.1
TCCTAGACTA	0.974
ACGTGAATTA	1.05
AACTTAGAAC	1.03
TGTTCGCAGC	1.3
TGTAGACAA	1.39
ATTTGTCTCT	0.998
TCAATTGCAT	1.02
TAACAAATAA	1.02
CTTTGCTCAT	1.02
AGTTCTTTA	1.02
CTGTGTCCCA	0.947
TGCCAATTTC	1.03
CGGATCAGTT	1.03

Sequence	switch fluorescence ratio
CGCTTAGTCC	1.59
GGTTAGAGCG	0.987
TCTATATTT	1
CACGGTGCAT	0.995
GTCGCTAAGC	1.09
GCAATTAGAG	1.07
ATTTATTAAT	0.979
TTACATTCAG	1.03
GGAGACTGCA	1.06
CGGGTAGTTT	1.01
GCATCTGCCC	1.08
ATGGAGGTT	0.946
TACAAAAAGA	1.03
AAGGTAAAAG	1.01
GGAGCGCGCC	1.01
GCTCAGGAAG	1.07
GTTTGCTCAA	0.981
GCCGTGAGGG	1.01
TGATGAGAA	0.991
AAGCAGTGA	0.986
AAGTCATAT	0.987
AGTACGGGAA	1.05
CCTGGAACG	1.01
GGTGAGGTGT	1.07
CGAGATAGAT	1.01
GACATGATTT	0.981

Sequence	switch fluorescence ratio
GACAAAGGTT	1.04
TATAATTCGA	0.97
CGTAGATTGG	0.975
TCGCCAAGTT	1.02
TTTAGCCAAT	1.09
ACGTAATGGT	1.24
AAATTTTGAT	0.997
TTGCTCTAAG	1.02
ACGTTGTTCT	1.01
CTCGTAAATG	0.976
TTCGATTCCA	1
TGGCCCGAGA	1.02
AGTCAAGCGT	0.992
GCCGGAGGAA	1.34
CTGCTACCTT	1.07
TATCTTATAG	1.02
TCTATATAGG	0.978
TTGAGCGCGG	1.04
GCTAGTCGAC	0.984
ACAGAGTACG	1.07
GTAGTTACCC	1.04
CCCATACCCC	1.13
GTTCGTTACG	1.02
AAAATGTCGC	1.07
TGCTGTGATT	0.954
ACCATTTACC	1.06

Sequence	switch fluorescence ratio
CAGCGCTCCG	1.14
TGGTCACCGG	1.03
GATTTTCCCT	1.05
TTGGCCGTT	0.983
TTGAGTAGGA	0.966
AAAGAAGGAC	2.81
TTTATGAAA	0.965
AAGCCTGTGG	0.957
GGCTCGCCTA	0.951
TAAGTTCCCG	0.99
CAAGACCAGT	0.985
AAGACTGGTT	0.98
GTACCTATAG	1.01
GTCGCGCTGA	0.981
TTGCGCTTGG	1.03
TCACAAAAC	1.07
GTTAGTTAT	1.07
TTATAAAGGC	1.11
CATGTTTGAG	0.981
CACGCGTTTC	1.12
GGCCTACTTG	0.973
TCGACATTGC	1.19
GGATAAGGCA	1.03
